Reference: article PMC9574860, “Chemical Toolkit for PARK7: Potent, Selective, and High-Throughput” (Journal of Medicinal Chemistry, 2022)
In all, about 7,900 compounds went through this assay and about 400 (5.1%) showed an effect of 50% or more. This is one part of the list.

The molecules below were run against Parkinson's disease protein 7 (PARK7/DJ1) (human, UniProt Q99497) (assay: primary screen, percent inhibition; read as competition with a fluorescent probe by fluorescence polarization; higher = more effect of the substance). Conditions: 100 µM.
Parkinson's disease protein 7 (PARK7/DJ1), sequence (Q99497 whole entry, looked up, the tested form may be a part): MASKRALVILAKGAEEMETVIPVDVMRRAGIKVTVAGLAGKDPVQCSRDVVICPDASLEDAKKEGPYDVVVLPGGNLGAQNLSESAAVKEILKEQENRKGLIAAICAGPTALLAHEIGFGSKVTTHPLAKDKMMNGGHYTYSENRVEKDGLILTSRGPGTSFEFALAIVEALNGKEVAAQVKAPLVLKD
Method in brief: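 Fluorescence-polarization probe displacement (JYQ-107, 20 nM final, 2 h) after 2 h preincubation of PARK7 (0.2 μM final) with each fragment at 100 μM final. Read-out ex/em 480/520 nm; remaining activity derived from FP signal loss relative to reference controls.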
`N#CCSCC(=O)NC1CN(c2ccc(F)cc2)C1=O` (centres unmarked) gave an Inhibition % of 5.09%. `Cc1ccc(CNC(=O)CCl)cc1F` was tested, and the Inhibition % was 3.35%. With `O=S(=O)(F)c1ccc2cnccc2c1` the Inhibition % was 86.1%. `CC1(C)OB(c2cnn3cccnc23)OC1(C)C` showed an Inhibition % of 7.34%. With `Cc1ccc(C=CS(=O)(=O)Nc2cc(C)nn2C)cc1` the Inhibition % was 20%. In the case of `N#CC(=Cc1ccco1)C(=O)O`, the Inhibition % is reported as 4.73%. With `COc1ccccc1C=CC(=O)N1CCNC(=O)C1` the Inhibition % was 13.9%. `Cc1cnc(C#N)c(C)c1` showed an Inhibition % of 6.16%. `CC(C)(C)OC(=O)Nc1ccc(F)c(B2OC(C)(C)C(C)(C)O2)c1` was tested, and the Inhibition % was 4.59%. `Cl.OB(O)c1ccc(CN2CCOCC2)cc1` showed an Inhibition % of 2.75%. Work on `Cc1ccoc1C=C(C#N)C(=O)NCc1ccco1` yielded an Inhibition % of 2.51%. In the case of `CCOc1cc(C)c(C)cc1S(=O)(=O)n1ccnc1CC`, the Inhibition % is reported as 5.01%. `COc1nc(C#N)ncc1C` gave an Inhibition % of 1.53%. In the case of `CCC(=O)N1CCc2cc(C(=O)CCl)ccc21`, the Inhibition % is reported as 3.43%. Work on `C=CC(=O)NCC1CCCOC1c1ccc(C)cc1` (centres unmarked) yielded an Inhibition % of 9.55%. `CCOc1cc(S(=O)(=O)n2nc(C)cc2C)ccc1F` was tested, and the Inhibition % was 1.46%. `CC(=O)c1ccc(F)c(B2OC(C)(C)C(C)(C)O2)c1` was tested, and the Inhibition % was 5.97%. `N#Cc1n[nH]c2ccccc12` showed an Inhibition % of 5.12%. For `N#CN(Cc1nccs1)c1ccc(F)cc1`, the Inhibition % was 24.2%. `C=CCNC(=O)C(C#N)=Cc1ccc2c(c1)OCCO2` was tested, and the Inhibition % was 6.87%. Molecule `CC1(C)OB(c2ccco2)OC1(C)C` has an Inhibition % of 7.09%. Molecule `Cc1ccc(Oc2ccc(NC(=O)CCl)cc2)cc1` has an Inhibition % of 36.3%. `N#Cc1nccnc1N1CCCC2(CC=CCC2)C1` (centres unmarked) showed an Inhibition % of 9.07%. In the case of `COCCn1cc(B2OC(C)(C)C(C)(C)O2)cn1`, the Inhibition % is reported as 10.8%. For `O=C1OCC[C@@H]1NS(=O)(=O)c1csc2ccccc12`, the Inhibition % was 6.58%. In the case of `O=C(Nc1ccc(S(=O)(=O)F)cc1)c1cc2c(=O)[nH]cnc2cn1`, the Inhibition % is reported as 9.83%. `N#Cc1nc(Cc2ccccc2)oc1N1CCOCC1` showed an Inhibition % of 0.611%. In the case of `C=CC(=O)NCC1(CO)COCC2(CCC2)N1C` (centres unmarked), the Inhibition % is reported as 4.79%. With `CCO[C@H]1C[C@H](n2cc(-c3ccc(S(=O)(=O)F)cc3)nn2)C1` the Inhibition % was 29%. Work on `O=C(CCl)NC1CCCCC1` yielded an Inhibition % of 11.7%. In the case of `O=C(CCl)NCCCn1cccn1`, the Inhibition % is reported as 7.26%. Molecule `CCCNC(=O)C(C#N)=Cc1ccc(C2OCCO2)cc1` has an Inhibition % of 21.9%. Work on `COc1ccc(CC(C)=CC#N)cc1` yielded an Inhibition % of 23.8%. Molecule `COc1ccc(-c2nc(C#N)c(N3CCCC3)o2)cc1` has an Inhibition % of 5.17%. For `N#Cc1nccnc1NCC1(Sc2ccccc2)CC1`, the Inhibition % was -1.71%. `COc1cccc2c1CCC2NC(=O)c1cccnc1S` (centres unmarked) gave an Inhibition % of 1.42%. For `C=CC(=O)Nc1ccc(N2CCCC(C(N)=O)C2)nc1` (centres unmarked), the Inhibition % was 27.7%. For `O=C(CCl)c1ccc(F)cc1F`, the Inhibition % was 18.5%. In the case of `O=C(CCl)Nc1cc([N+](=O)[O-])ccc1F`, the Inhibition % is reported as 17.5%. `C=CC(=O)NC1CCc2nnc(CC)n2C1` (centres unmarked) showed an Inhibition % of 7.66%. In the case of `C=CC(=O)N1CCCC1CSC` (centres unmarked), the Inhibition % is reported as 6.12%. `Cc1cccc(CC(CO)Nc2ccc(C#N)nc2)c1` (centres unmarked) showed an Inhibition % of -2.96%. With `CCC(=O)N(c1cc(C)cc(C)c1)C1C=CS(=O)(=O)C1` (centres unmarked) the Inhibition % was 6.07%. `CC(C)(C)OCCOc1cccc(C#N)n1` showed an Inhibition % of 9.61%. In the case of `CC(NC(=O)CCl)c1ccc(F)cc1F` (centres unmarked), the Inhibition % is reported as 7.43%. Molecule `OB(O)c1ccccc1COc1ccc(F)cc1` has an Inhibition % of 7.53%. `O=S1(=O)CCC2OC2C1` (centres unmarked) was tested, and the Inhibition % was 9.31%. `O=C1OCCC1Sc1nnc(-c2ccco2)o1` (centres unmarked) was tested, and the Inhibition % was 13.9%. In the case of `C=CC(=O)NCC1CCOCC1`, the Inhibition % is reported as 7.85%. Molecule `Cn1cc(NS(=O)(=O)C=Cc2ccccc2Cl)cn1` has an Inhibition % of 28.6%. Work on `N#CC(=Cc1ccc(F)cc1)c1nnc2n1CCCCC2` yielded an Inhibition % of 6.3%. `N#CC1(CCCCl)CCOCC1` showed an Inhibition % of 9.63%. Work on `Cn1c(S(=O)(=O)F)cc2ccccc21` yielded an Inhibition % of -1.5%. Molecule `C=CC(=O)N1CCOCC1(C)CC` (centres unmarked) has an Inhibition % of 10.6%. `C=CC(=O)N1CCc2ccc(C)cc21` was tested, and the Inhibition % was 4.18%. `C=CC(=O)NCC1CCc2cccnc21` (centres unmarked) showed an Inhibition % of 4.09%. `N#Cc1nc(-c2ccco2)oc1N1CCN(C(=O)CCl)CC1` gave an Inhibition % of 51.4%. Molecule `C=CC(=O)NCCS(=O)(=O)N1CCOCC1` has an Inhibition % of 6.18%. In the case of `Cc1ccsc1C=CC(=O)N1CCC(C(N)=O)CC1`, the Inhibition % is reported as 9.43%. Molecule `C=CC(=O)Nc1nnc(CC(F)(F)F)s1` has an Inhibition % of 8.25%. `CC(C)c1csc(CNC(=O)c2cccnc2S)n1` gave an Inhibition % of 4.25%. `CC1(C)OB(c2cccc3c2CCC3)OC1(C)C` was tested, and the Inhibition % was 3.3%. With `C=CC(=O)NC1CCOCC1OC` (centres unmarked) the Inhibition % was 5.16%. Molecule `O=S(=O)(Oc1ccccc1)c1ccc2c(c1)OCCCO2` has an Inhibition % of 16%. With `COc1cc(S(=O)(=O)n2ccc(C)n2)c(C)cc1C` the Inhibition % was 8.3%. With `C=CC(=O)NCC1(C)CCC(C)CC1` (centres unmarked) the Inhibition % was 4.28%. In the case of `COCCNC(=O)C(C#N)=Cc1cccc2ccccc12`, the Inhibition % is reported as 11.9%. `CS(=O)(=O)NC1CCCN(C(=O)C=Cc2cccnc2)C1` (centres unmarked) was tested, and the Inhibition % was 5.3%. `O=C(NCc1ccc(F)c(CO)c1)c1cccnc1S` showed an Inhibition % of 6.71%. Molecule `O=C1CCC(CC(=O)Nc2cccc(S(=O)(=O)F)c2)CC1` has an Inhibition % of 98.3%. `Cc1nc(C#N)c(N)o1` showed an Inhibition % of 16.5%. `O=C1NCC12CCCOC2` (centres unmarked) gave an Inhibition % of 6.54%. `CC(C)OCCN(C)c1nc2ccccn2c1C#N` gave an Inhibition % of 3.68%. `O=S(=O)(F)CCn1nnc(-c2ccccc2)n1` was tested, and the Inhibition % was 35.7%. `C=CC(=O)N1CCCC1C(C)(C)CC` (centres unmarked) gave an Inhibition % of 12.9%. With `Cc1ccc(C=CC(=O)N2CCC(C)(C(=O)O)C2)o1` (centres unmarked) the Inhibition % was 6.29%. With `Cc1ccccc1-n1cnnc1SC1CC(C)OC1=O` (centres unmarked) the Inhibition % was 4.79%. `COc1cccc(C2CO2)c1` (centres unmarked) showed an Inhibition % of 21.3%. Work on `Oc1nc(S)nc2scnc12` yielded an Inhibition % of 4.25%. With `Cc1ccc(N2CCCC(CC(N)=O)CC2)nc1C#N` (centres unmarked) the Inhibition % was 15.2%. With `C=CC(=O)N1CCCC(CCC(N)=O)C1` (centres unmarked) the Inhibition % was 6.39%. `O=C(O)CCn1c(S)nc2ccccc2c1=O` was tested, and the Inhibition % was 7.16%. `C=CC(=O)N1CCCN(c2nc(C)ns2)CC1` was tested, and the Inhibition % was 11.5%. `CC(C)(CO)CNC(=O)c1cccnc1S` showed an Inhibition % of 6.61%. Molecule `Cc1ccc(C)c(Cn2cnc(C#N)n2)c1` has an Inhibition % of 2.61%. For `O=c1c2nccn2ccn1CCS(=O)(=O)F`, the Inhibition % was 9.64%. `Cc1cc(B2OC(C)(C)C(C)(C)O2)cc(N)n1` was tested, and the Inhibition % was 5.05%. `CS(=O)(=O)n1cc(N)cn1` gave an Inhibition % of 10.7%. `C=CC(=O)NC1(C2(C)CC2)CC1` showed an Inhibition % of 11.8%. In the case of `O=C(CCl)Nc1ccc(N=Nc2ccccc2)cc1`, the Inhibition % is reported as 5.15%. Molecule `C=CC(=O)Nc1cc2ccccc2nn1` has an Inhibition % of 95%. `Cc1ccc(C=CS(=O)(=O)NCCC(=O)O)cc1` showed an Inhibition % of 5.97%. `Cc1ccc(C=C(C#N)C(=O)N2CCCC2)cc1` gave an Inhibition % of 7.55%. In the case of `O=S(=O)(C=Cc1ccccc1Cl)Nc1ccncc1F`, the Inhibition % is reported as 5.26%. `O=c1[nH]c(S)nc2c1CCC2` gave an Inhibition % of 5.3%. `CC1CN(c2ccc(C#N)nc2)CC(C2CC2)O1` (centres unmarked) was tested, and the Inhibition % was 14%. Work on `CC1(C)OB(c2ccc3ocnc3c2)OC1(C)C` yielded an Inhibition % of 2.29%. `N#Cc1cc2cc(Cl)ccc2[nH]1` showed an Inhibition % of 3.91%. With `CC(C(=O)NC1CC1c1ccccc1)N1C(=O)CCC1=O` (centres unmarked) the Inhibition % was 14.1%. For `C=CC(=O)NC1CC(C)c2ccccc21` (centres unmarked), the Inhibition % was 3.52%. `C=CC(=O)NC1C(=O)N(C)Cc2ccccc21` (centres unmarked) showed an Inhibition % of 40.9%. `N#Cc1ccc(C(=O)CCl)cc1` was tested, and the Inhibition % was 18.8%. Molecule `N#Cc1cc(C(=O)N[C@@H]2CCC(=O)N[C@H]2C2CC2)ccn1` has an Inhibition % of -0.598%. `CCc1ccc(-c2csc(NC(=O)CCl)n2)cc1` showed an Inhibition % of 8%. `C=CC(=O)NC1(C)CCCOC1` (centres unmarked) gave an Inhibition % of 10.2%. Work on `CC1(c2ccc(S(=O)(=O)F)cc2)OCCO1` yielded an Inhibition % of 6.74%. `O=C(CCCl)Nc1ccccc1F` was tested, and the Inhibition % was 6.72%. For `Cn1cc(C(=O)NS(=O)(=O)C=Cc2ccccc2)cn1`, the Inhibition % was 12%. `C=CC(=O)N1CCN(C(=O)CCOc2ccccc2)CC1` gave an Inhibition % of -3.72%. `COc1ccc(F)cc1Cn1cnc(C#N)n1` gave an Inhibition % of 3.22%. Molecule `O=C(CCl)c1cnc(N2CCCCC2)s1` has an Inhibition % of 8.03%. `Cc1cnc(C#N)cc1Cl` was tested, and the Inhibition % was 8.18%. `CC(C)Oc1ccc(Oc2cnc(C#N)cn2)cc1` showed an Inhibition % of 6.7%. Work on `C=CS(=O)(=O)c1nc(C)cs1` yielded an Inhibition % of 13.6%. In the case of `O=C(O)c1cccc(S)n1`, the Inhibition % is reported as 18.1%. `C=CC(=O)Nc1cnn(C(C)(C)C)c1C` was tested, and the Inhibition % was 7.94%. `N#Cc1nccnc1N1CCSC2(CCCCC2)C1` was tested, and the Inhibition % was 1.17%. For `CS(=O)(=O)NCCc1ccc(C(=O)CCl)cc1`, the Inhibition % was 82.8%. Molecule `COc1ccc(-c2csc(NC(=O)CCl)n2)c(OC)c1` has an Inhibition % of 4.4%. For `O=C(C=Cc1cccnc1)N1CCN(c2nccs2)CC1`, the Inhibition % was 10.3%. In the case of `CC(CS(C)=O)Nc1ccc(C#N)nc1` (centres unmarked), the Inhibition % is reported as 5.3%. With `CC1Cc2ccccc2N1C(=O)CCN1C(=O)CCC1=O` (centres unmarked) the Inhibition % was 14.9%. In the case of `CN(C(=O)C1CCOCC1)C1CC(C)(C)OC1=O` (centres unmarked), the Inhibition % is reported as 6.67%. `C=CC(=O)N1CCSC2CCCCC21` (centres unmarked) was tested, and the Inhibition % was 6.99%. `O=C(O)CCn1c(S)nc2cc(Cl)ccc2c1=O` was tested, and the Inhibition % was 4.88%.
